# In article PMC10668032:
# The other results are listed elsewhere or left out. At the low end of the ranking, values are background and their order means little.
# Target: SIX1-Q177R homeodomain (UniProt Q15475)
# Test: universal protein binding microarray
# Conditions: Universal all-10-mer PBM (8x60K, AMADID 030236), 300 nM GST-tagged protein, Alexa Fluor 488 anti-GST; buffer, salt, pH and temperature not stated; high values mean tight binding; most listed sequences are background and not binding sites; double strand, one strand shown
row,Sequence,binding signal [E-score]
1,AGCTGAAC,-0.0318
2,AAACAAGG,-0.018
3,TCGTTGAA,-0.212
4,CGCCTGCC,-0.19
5,ATTTAGCG,-0.136
6,CCCATACG,-0.0284
7,AATTTTGC,-0.135
8,ATATAAGC,-0.0874
9,CCCTCACC,0.101
10,AAGATCTT,-0.291
11,CGTCGCCA,-0.201
12,GCGCGCCC,-0.0549
13,TTAACAAA,-0.222
14,GCGCCGAA,-0.205
15,AGCGATAC,0.14
16,GCTAGCAA,-0.0876
17,AAAAAGTC,-0.0776
18,GGTAATAA,0.0416
19,AGCGTACA,0.0474
20,TAGGTATA,-0.0208
21,AAGAAGTC,-0.082
22,CGACGCGA,0.151

row,Sequence,binding signal [E-score]
1,AAAATCCA,0.0691
2,ATACGCCC,0.092
3,ACTTATTC,-0.052
4,GCCAACTA,-0.00775
5,CTGTTCTC,-0.251
6,CCGTGCGA,0.155
7,CAGGTACA,0.187
8,ATATGTAC,-0.0592
9,TGGCTGAA,-0.112
10,CACGCGAG,0.27
11,CAGCTCTA,-0.187
12,CGGCGGCC,-0.293
13,AGCGAATG,-0.134
14,AACTCTGA,-0.0863
15,CATTCACA,0.0603
16,ATCTTAGC,-0.164
17,ACCCTCGA,0.155
18,CGAAGGCC,-0.263
19,CACTTCTA,0.209
20,CTGACTCC,0.233
21,CGCAGCCC,-0.0789
22,CGAGTTGC,0.051

row,Sequence,binding signal [E-score]
1,ACTGGCTA,-0.155
2,ACAGAGCA,0.0318
3,ACTAACAC,0.427
4,CCTGTACG,-0.113
5,TAAATAAA,-0.0663
6,AGCTAACT,-0.147
7,GCTTTTAA,-0.277
8,ATCATGCG,0.0136
9,GCACACCC,0.396
10,AATGTCGC,0.011
11,TCATGTCA,-0.0841
12,AACCCGTG,0.23
13,GTATTCGA,0.0412
14,AACCTGGG,0.0382
15,ACACGTTC,0.276
16,ACAGCTGG,-0.236
17,CAGCTTAA,-0.13
18,AATGTAAA,-0.171
19,CACGCGCG,0.0814
20,CGACTGGC,-0.0766
21,CCTGCCTA,-0.0787
22,GAGTTTTA,-0.189

row,Sequence,binding signal [E-score]
1,AAGTAACA,0.146
2,CAGGACAC,0.423
3,GACAGGAA,-0.164
4,AACATCGC,-0.0882
5,AGCCCTTG,-0.147
6,GCTCGCCC,-0.0296
7,CATTTCGG,-0.232
8,CCCGGAGC,0.00308
9,AAACCTAA,-0.244
10,TAACTAGA,0.0854
11,GGATTGGA,0.0345
12,CACTAGTG,0.343
13,ACGGGTCG,0.224
14,CTATTATA,-0.161
15,CACCGGGG,0.256
16,CGGCGACG,0.0171
17,AGTCCCGG,-0.119
18,CAGATTGG,-0.00897
19,CTGTGAAC,0.0971
20,CCCTTAAA,0.091
